Experimental data from PubChem BioAssay AID651820 (National Center for Advancing Translational Sciences (NCATS), 2012).
Among all 340,000 compounds or so, about 12,000 (3.5%) were called active. This list was built around the results that the source calls inconclusive (neither active nor inactive); the mix of calls is not that of the screen. The call rests on the fitted dose curve; in most records, active means well fitted inhibition curve with a large enough effect; inconclusive means small, poorly fitted or top-dose-only effect, or another doubt; inactive means no such curve, though single readings can be large or run the other way. Potencies of inconclusive entries are left out as doubtful fits.

experiment: qHTS Assay for Inhibitors of Hepatitis C Virus (HCV); conditions: Huh7.5.1 HCVcc-Cre (HCVcc is cell-culture hepatitis C virus) infection, luciferase reporter, 44 h; activity change, negative = inhibition: at 41.8 µM (top of the series)
Procedure, shortened: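 Reporter virus HCVcc-Cre (~0.5 moi) infects cells exposed to compound; seeding density 1,000 cells/well with 4 h settling beforehand. Luminescence, 15 sec read, taken 44 h post-infection following a 15 min RT substrate incubation.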
On the % scale 0 is the no-effect control and ±100 the full control effect; potency means the concentration at half of the fitted maximal effect; tags describe the fitted curve by direction and shape.

| Compound | Potency | activity change, negative = inhibition |
| --- | --- | --- |
| N=c1c2c(ncn1CCCO)Oc1ccc3ccccc3c1C2c1ccccc1 (configuration not stated) | inconclusive [inhibitor, single point] |  |
| C/C(=N\Nc1cc(N2CCOCC2)nc(C)n1)c1cccc([N+](=O)[O-])c1 | active: 11.2 µM |  |
| COc1ccc(S(=O)(=O)NNC(=O)C2CC(c3cccnc3)=NO2)cc1 (configuration not stated) |  | inactive: 4.19% |
| Cn1cc(/C=C(\C#N)C(=O)Nc2ccccc2O)c2ccccc21 | inconclusive [inhibitor, partial curve, poor fit] |  |
| Fc1ccc(CN2CCCCCCC2)c(F)c1 | inconclusive [inhibitor, single point] |  |
| Cc1cccc(-n2ncc3c2CCCC3NC(=O)CCCN2CCCCC2=O)c1C (configuration not stated) | inconclusive [inhibitor, single point] |  |
| CC(=O)C1CCC2C3CC(O)C4=CC(=O)CCC4(C)C3C(=O)CC12C (configuration not stated) |  | inactive: -0.614% |
| CCc1nnc(NC(=O)c2ccncc2)s1 |  | inactive: -7.85% |
| O=C(CSc1nnc(-c2ccco2)o1)c1ccc[nH]1 | inconclusive [inhibitor, single point] |  |
| COc1ccc(S(=O)(=O)NC(C)C(=O)Nc2cccc(C(C)=O)c2)cc1 (configuration not stated) | inconclusive [inhibitor, full curve] |  |
| COc1cc(C(=O)Nc2nc(-c3ccc(C)cc3)cs2)ccc1OCC(=O)N1CCOCC1 | active: 11.2 µM |  |
| CCc1cc(-c2[nH]ncc2-c2ccc(OC)cc2)c(O)cc1O | active: 3.98 µM |  |
| COc1cccc2sc(N(C)c3ccccc3)nc12 | active: 25.1 µM |  |
| N#Cc1nc(COc2ccc(Cl)cc2)oc1NCc1ccc2c(c1)OCO2 | active: 10 µM |  |
| CCNS(=O)(=O)c1c(C)cc(N2CCCC2=O)cc1C | inconclusive [inhibitor, single point] |  |
| O=c1c(Cc2ccc(F)cc2)c(O)ccn1C1CC1 |  | inactive: 13.3% |
| Cc1cc(Cl)c(OCCCN2CCCCC2)c(Br)c1 | inconclusive [inhibitor, single point] |  |
| CCOC(=O)c1cc(-c2ccccc2C)nn1CC1CC(c2cccnc2)=NO1 (configuration not stated) | inconclusive [inhibitor, single point] |  |
| O=C(NCc1ccc(F)cc1)C(=O)c1cn(CC(=O)N2CCCC2)c2ccccc12 | inconclusive [inhibitor, partial curve] |  |
| COC(=O)C1=C(CSc2nc3ccccc3s2)NC(=O)NC1c1ccc(F)cc1 (configuration not stated) | inconclusive [inhibitor, partial curve] |  |
| Cc1ccc(-n2c(SCC(=O)NCc3ccco3)nc3c([nH]c4ccccc43)c2=O)cc1 | inconclusive [inhibitor, single point] |  |
| Cc1ccc(C(=O)CSc2nc(C)cc(C)c2C(N)=O)cc1 | inconclusive [inhibitor, single point] |  |
| COc1ccc(CCNc2ncnc3sccc23)cc1OC | inconclusive [inhibitor, full curve] |  |
| O=C(NCc1cccnc1)C(=O)Nc1ccc2c(c1)OCO2 |  | inactive: 31.2% |

| Compound | Potency | activity change, negative = inhibition |
| --- | --- | --- |
| O=C(NCc1ccccc1Cl)c1cccc(OC2CCN(C(=O)C3CC3)CC2)c1 | inconclusive [inhibitor, partial curve] |  |
| Cc1cc2cc(CN(C(=O)C3CC3)C3CCCC3)c3nnnn3c2cc1C | inconclusive [inhibitor, partial curve] |  |
| O=C1C=C(c2cccc(CO)c2)C[C@@H](c2ccc(Cl)cc2)C1 |  | inactive: -0.521% |
| COc1ccc(C2CC(c3ccccc3)=NN2C(=O)c2ccc(Cl)c([N+](=O)[O-])c2)cc1 (configuration not stated) | inconclusive [inhibitor, single point] |  |
| CCN1C(=NCCc2c[nH]c3ccccc23)N[C@@H](c2ccccc2)[C@H](C(=O)OC)[C@H]1C | inconclusive [inhibitor, full curve, poor fit] |  |
| COc1ccc(-c2nn3c(-c4ccccc4)nnc3s2)cc1 | inconclusive [inhibitor, single point] |  |
| Cc1noc(C)c1S(=O)(=O)N1CCC(C(=O)NC2CCN(Cc3ccccc3)CC2)CC1 | inconclusive [inhibitor, single point] |  |
| CNC(=O)c1[nH]nc2c1CCc1ccccc1-2 | inconclusive [inhibitor, partial curve] |  |
| c1ccc(-c2ccc(OCCOCCn3cncn3)cc2)cc1 |  | inactive: -8.41% |
| C=CCOc1c(Br)cc(CNc2ccc(NC(=O)C(C)C)c(OC)c2)cc1OC | active: 10 µM |  |
| CCCn1cc(NC(=O)C2CC(c3cccc(Br)c3)=NO2)cn1 (configuration not stated) | inconclusive [inhibitor, single point] |  |
| Cc1nn(-c2ccccc2)c2c1c(C)c(CCC(=O)NCC1CCCO1)c(=O)n2C (configuration not stated) | inconclusive [inhibitor, single point] |  |
| CCOC(=O)C1CCN(C/C=C/c2ccccc2)CC1 |  | inactive: 5.72% |
| COc1cccc(Nc2ncnc3ccccc23)c1 | inconclusive [inhibitor, partial curve, poor fit] |  |
| CCc1ccc(NC(=O)CSC2=C(C#N)C(c3ccco3)C3=C(CCCC3=O)N2)cc1 (configuration not stated) | inconclusive [inhibitor, partial curve] |  |
| COc1cccc(NC(=S)N2CCN(Cc3ccccc3)CC2)c1 |  | inactive: -8.64% |
| O=C(Nc1ccccc1Cl)c1ccc([N+](=O)[O-])o1 | inconclusive [inhibitor, single point] |  |
| C=CCC(C#N)(c1ccc(OC)c(OC)c1)c1cnccn1 (configuration not stated) |  | inactive: -0.682% |
| CCCCNc1cccc2c1S(=O)(=O)N(CCCC)CC(COCc1ccccc1)O2 (configuration not stated) | inconclusive [inhibitor, partial curve, poor fit] |  |
| Cc1cccc(C)c1NC(=O)CC1SC2=NCCN2C1=O (configuration not stated) |  | inactive: 3.43% |
| Cc1csc(CNC(=O)CC2C(=O)NCCN2Cc2ccc(F)cc2Cl)n1 (configuration not stated) |  | inactive: 18.6% |
| COc1ccc2c(c1)[C@@H]1[C@H](CO2)[C@H](c2ccccc2)[C@]2(C)C(=O)Nc3ccc(C)cc3C(=O)N12 |  | inactive: -5.64% |
| O=S(=O)(c1ccccc1)N1CCN(c2ccccc2)CC1 |  | inactive: 8.31% |
| O=C1c2cccc(OCC(=O)N3CCCc4ccccc43)c2CCN1Cc1cccnc1 | inconclusive [inhibitor, partial curve] |  |

| Compound | Potency | activity change, negative = inhibition |
| --- | --- | --- |
| c1ccc(-c2nc(NCCCn3ccnc3)c3oc4ccccc4c3n2)cc1 | inconclusive [inhibitor, single point] |  |
| CC(C)c1nnc(NC(=O)CCCCCN2C(=O)C3C4C=CC(C4)C3C2=O)s1 (configuration not stated) | inconclusive [inhibitor, partial curve] |  |
| O=C1C(=O)N(CC2CCCO2)C(c2ccccc2[N+](=O)[O-])/C1=C(/O)c1ccccc1 (configuration not stated) |  | inactive: 10.8% |
| Cc1cccc(-n2nnnc2SCC(=O)Nc2ccc(N3CCN(C)CC3)cc2)c1 |  | inactive: -12.9% |
| CCCn1c(NCc2cccc(OC)c2OC)nc2ccccc21 | inconclusive [inhibitor, single point] |  |
| O=C1CCCC2=C1C(Cc1ccccc1)C1=C(CCCC1=O)O2 |  | inactive: 11.5% |
| O=C(Nc1ccccc1)Nc1nccs1 |  | inactive: -2.01% |
| O=S(=O)(c1cccs1)n1cccn1 | inconclusive [inhibitor, single point] |  |
| COc1ccc(Cl)cc1NC(=O)Cn1nnc(C(=O)NCCc2ccc(OC)c(OC)c2)c1N | inconclusive [inhibitor, partial curve] |  |
| Cc1c(Cl)cccc1NC(=O)NC1CCCCC1 | inconclusive [inhibitor, single point] |  |
| Cc1nc(/N=C(\N)NC(=O)NC2CCCCC2)nc2ccccc12 | active: 11.2 µM |  |
| C=CCN(c1ccccc1)S(=O)(=O)c1cccc(C(=O)NCC(c2cccs2)N2CCOCC2)c1 (configuration not stated) | inconclusive [inhibitor, partial curve] |  |
| CCc1noc(C)c1C(=O)NNC(=O)COc1ccccc1C |  | inactive: -6.81% |
| COc1ccc(C2CC(c3ccccc3)=NN2C(=O)COC(=O)c2cccc(N)c2)cc1 (configuration not stated) | inconclusive [inhibitor, single point] |  |
| COc1cccc(CNC(=O)c2cccc(S(=O)(=O)N3CCN(C)CC3)c2)c1 |  | inactive: -4.37% |
| COc1ccc(C2(CNC(=O)/C=C/c3ccco3)CCCC2)cc1OC |  | inactive: -15.4% |
| COc1ccc(-c2c(C#N)sc(C(N)=O)c2-c2ccc(OC)cc2)cc1 | inconclusive [inhibitor, single point] |  |
| COc1ccc(CNc2ncnc3cc(Cl)ccc23)cc1OC | inconclusive [inhibitor, partial curve] |  |
| COCCN(C(=O)COC(=O)c1c(-c2ccccc2)noc1C)c1c(N)n(Cc2ccccc2)c(=O)[nH]c1=O | inconclusive [inhibitor, partial curve, poor fit] |  |
| CSC1=NCCN1C(=O)Cc1ccc(-c2ccccc2)cc1 | inconclusive [inhibitor, single point] |  |
| Cc1ccc(NC(=S)NC(NC(=O)c2ccccc2C)C(Cl)(Cl)Cl)c(C)c1 (configuration not stated) | inconclusive [inhibitor, single point] |  |
| COc1ccc(NC(=O)CSc2nc(N)c(C(=O)Nc3ccc(N(C)C)cc3)s2)cc1 | inconclusive [inhibitor, single point] |  |
| O=C(CN(C(=O)c1ccccc1)C(=O)c1ccccc1)OCc1ccccc1 | inconclusive [inhibitor, single point] |  |
| Cc1ccc(C)c(S(=O)(=O)N2CCN(C(=O)C3CCN(C(=O)c4ccc(F)cc4)CC3)CC2)c1 | inconclusive [inhibitor, partial curve] |  |
